According to PubChem BioAssay AID686979 (National Center for Advancing Translational Sciences (NCATS), 2013):
About 50,000 (12%) of roughly 420,000 compounds were called active. Inconclusive results, whose numbers are uncertain, are shown with a selection of clear calls. Calls come from the whole dose curve; as a rule, active = well fitted inhibition curve with a large enough effect; inconclusive = small, poorly fitted or top-dose-only effect; inactive = flat fitted curve, though single readings scatter. No potency is given beside an inconclusive call; the fits are too rough.

assay: qHTS for Inhibitors of human tyrosyl-DNA phosphodiesterase 1 (TDP1): qHTS in cells in presence of CPT; conditions: chicken DT40 Tdp1-/-;hTDP1 cells + 20 nM CPT, ATP luminescence, 48 h; activity change, negative = growth inhibition: at 46.2 µM (top of the series) unless noted; note: nearly all actives have a fitted effect of over 55% in size
In short: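 Chicken DT40 Tdp1-/- cells complemented with human TDP1, 400 cells/well, exposed to compounds plus 20 nM camptothecin for at least 48 h at 37 C; viability read as ATP content by CellTiter-Glo luminescence.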
% is set by controls: 0 for no effect and ±100 for the full control effect; potency is the fitted concentration of half-maximal effect; tags give direction and shape of the fitted curve.

Structure (SMILES)	Potency	activity change, negative = growth inhibition
CCCC(O)(CCC)C(=O)NN(C(=O)CCl)c1cccc(C)c1	active: 4.61 µM	–
Cc1ccc(CNC(=O)CCC2CCCN(C(=O)c3ccc4c(c3)OCO4)C2)o1 (stereo unspecified)	inactive	–
COc1ccccc1Cc1nc2ccccc2nc1SCC(=O)N1CCCc2ccccc21	inconclusive [inhibitor, single point]	–
Cc1ccc(NC(=S)NCCSc2ccc(Cl)cc2)c(C)c1	inconclusive [inhibitor, single point]	–
COc1ccc(S(=O)(=O)N2CCCC2CNC(=O)c2cccc(OC)c2)cc1 (stereo unspecified)	inactive	–
O=C1S/C(=C\c2ccc(N3CCOCC3)o2)C(=O)N1Cc1c(F)cccc1Cl	active: 7.31 µM	–
Cc1cc(C)c2nc(NNC(=O)c3ccc(S(=O)(=O)N4CCc5ccccc5C4)cc3)sc2c1	active: 5.17 µM	–
Cc1cc(O)c2c(c1)C(=O)[C@@]13Oc4c5c(c(O)c6c(O)cc(C)cc46)C(=O)C[C@H](O)[C@H]5[C@@H]1[C@@H](O)CC(=O)C3=C2O	active: 14.6 µM	–
COC(=O)C(NC(C)=O)(Nc1ccccc1)C(=O)OC	inactive	–
CCOC(=O)c1[nH]c(=O)[nH]c1CNc1ccccc1C#N	inactive	–
COc1ccc(-c2cc(CNC(=O)CCl)on2)cc1	inconclusive [inhibitor, single point]	–
COc1ccccc1NC(=O)c1ccc(NC(=O)c2cc3c(s2)CCC3)cc1	inconclusive [inhibitor, single point]	–
CCOc1ccccc1N1CC(c2nc3ccccc3n2CCOc2ccccc2OC)CC1=O (stereo unspecified)	inconclusive [inhibitor, single point]	–
CCOc1ccc(-c2c(C(=O)N/N=C/C3CC=CCC3)nnn2-c2nonc2N)cc1 (stereo unspecified)	inactive	–
CC1=NOC(=O)/C1=C/c1ccc2c(c1)OCO2	active: 9.2 µM	–
CCn1c(COc2ccccc2)nnc1SCc1ccc(C#N)cc1	inconclusive [inhibitor, single point]	–
Cc1cc(C(=O)NNC(=O)CCCOc2ccccc2)c(C)o1	inactive	–
CC(C)(C)S(=O)(=O)c1cnc2c(-c3ccc(F)cc3)cnn2c1N	–	inconclusive: -28.5% [inhibitor]
OC(CNc1ccccc1)COc1ccc(OCC(O)CNc2ccccc2)cc1 (stereo unspecified)	active: 13 µM	–
Cc1nnc(N2CCN(c3ccccc3)CC2)[nH]c1=O	active: 5.17 µM	–
CCOC(=O)C1CCN(S(=O)(=O)c2ccc3c(c2)CCN3C(C)=O)CC1	inactive	–
Cc1ccccc1NC(=O)CCCCCN1C(=O)[C@@H]2Cc3ccccc3CN2C1=O	–	inconclusive: -30.8% [inhibitor]
N#Cc1ccccc1CSc1nnc(-c2ccncc2)o1	inconclusive [inhibitor, full curve, poor fit]	–
Cc1ccccc1NC(=O)CN1CCc2ccccc2C1	inactive	–
CC(C)n1c(N2CCN(C(=O)N3CCCCC3)CC2)nc2ccccc21	active: 13 µM	–
COc1ccc(N2CCN(C(=O)CCNC(=O)c3ccc(C(C)(C)C)cc3)CC2)cc1	active: 18.4 µM	–

Structure (SMILES)	Potency	activity change, negative = growth inhibition
Cc1ccc(-n2c(SCc3ccccc3C)nc3[nH]ncc3c2=O)cc1C	inconclusive [inhibitor, single point]	–
CC(C)=CCC/C(C)=C/CC/C(C)=C/CC/C(C)=C/CO	inactive	–
O=c1cc(CN2CCN(C/C=C/c3ccccc3)CC2)c2cc(O)ccc2o1	inconclusive [inhibitor, partial curve]	–
COc1cccc(NC(=O)c2cn(C)c(=O)c3cc(OC)c(OC)cc23)c1	active: 8.2 µM	–
O=C(NCc1ccccc1Cl)C(=O)NCC(c1cccs1)S(=O)(=O)c1ccccc1 (stereo unspecified)	active: 14.6 µM	–
Cc1ccc(C(=O)OCC(=O)NC(C)c2ccccc2)s1 (stereo unspecified)	inactive	–
Cc1[nH]n(-c2ccccc2)c(=O)c1/C=N/N(C)c1ccccc1	inconclusive [inhibitor, single point]	–
Cc1ccc(C)c(NC(=O)CCN2CCN(C)CC2)c1	inactive	–
COc1ccc(OC)c(N(CC(=O)N2CCC(C)CC2)S(=O)(=O)c2ccc(OC)c(OC)c2)c1	inconclusive [inhibitor, single point]	–
CSCC[C@H](NC(=O)N1CCn2c1nc1ccccc12)C(=O)NC1CCCCC1	inconclusive [inhibitor, single point]	–
CC(C)NC(=O)C12CC3CC(C1)CC(C(=O)NC(C)C)(C3)C2	inactive	–
Cc1cc(C(=O)COc2ccc(F)cc2Br)c(C)n1C1CC1	active: 14.6 µM	–
COc1ccc(Oc2ccc(/C=C/C(=O)c3ccc(O)cc3)cc2[N+](=O)[O-])cc1	inconclusive [inhibitor, single point]	–
Cc1ccc2nc(-c3ccccc3)c(-c3ccccc3)nc2c1	inconclusive [inhibitor, single point]	–
Cc1cccn2c(=O)c3cc(C(=O)NC(C)c4ccccc4)c(=N)n(CCOCCO)c3nc12 (stereo unspecified)	active: 23.1 µM	–
CC(C)N1CCN(C(=O)c2ccc(OC3CCN(CCc4ccccc4)CC3)cc2)CC1	inconclusive [inhibitor, single point]	–
CC1CCN(CC(=O)Nc2ccc(Br)cc2[N+](=O)[O-])CC1	inconclusive [inhibitor, single point]	–
CCN(CC)S(=O)(=O)c1ccc(/C=C/C(=O)Nc2ccc(F)cc2F)cc1	inconclusive [inhibitor, single point]	–
NCCSC1CC(=O)N(Cc2ccc(F)cc2)C1=O (stereo unspecified)	inactive	–
C=CCN1c2ccc(Br)cc2C(=O)CS1(=O)=O	inconclusive [inhibitor, single point]	–
CCOc1cc2c(C#N)c(N3CCNCC3)nc(N)c2c(N)n1	inactive	–
CN(Cc1ccccc1Cl)C(=O)c1cnccc1C(F)(F)F	inactive	–
COc1ccc(N2CC(NS(=O)(=O)c3ccc4ccccc4c3)CC2=O)cc1OC (stereo unspecified)	inconclusive [inhibitor, single point]	–
COc1ccc(NC(=O)[C@@H](NC(=O)c2ccccc2F)C(C)C)cc1S(=O)(=O)N1CCOCC1	inactive	–
C#CC1(O)CC(C)N(C)C(C)C1 (stereo unspecified)	inactive	–
c1csc(-c2ccc3nncn3c2)c1	inconclusive [inhibitor, single point]	–

Structure (SMILES)	Potency	activity change, negative = growth inhibition
O=C(O)C1CC=CCC1C(=O)Nc1cc(Cl)ccc1Cl (stereo unspecified)	inactive	–
COc1ccc2c(c1)Cc1sc(NC(=O)c3ccc(Cl)cc3)nc1-2	active: 20.6 µM	–
COc1cccc(CC2(CO)CCCN(Cc3ccc(OC(F)F)cc3)C2)c1 (stereo unspecified)	inconclusive [inhibitor, single point]	–
COc1nccnc1NS(=O)(=O)c1ccc(N=Cc2c(C)[nH]n(-c3ccc(C)c(C)c3)c2=O)cc1	active: 8.2 µM	–
Cc1ccc(NC(=O)CSc2nnc(COc3ccccc3C)o2)cc1	inactive	–
COc1ccccc1OCCCn1c(C)c(C#N)c2ccccc21	active: 20.6 µM	–
COc1cccc(C(=O)N2CCC[C@@H]2C(=O)N2CCC[C@H]2C(=O)NCc2ccncc2)c1	inactive	–
Cc1ccc([C@H]2N[C@]3(CCCN(CC4CCCCC4)C3=O)[C@H]3C(=O)N(C)C(=O)[C@@H]23)cc1	inconclusive [inhibitor, single point]	–
CC(C)c1ccc(-c2noc(SCC(=O)N(C)c3ccc(F)cc3)n2)cc1	active: 25.9 µM	–
Cc1ccc(C)c(N2CCN(C(=O)CNS(=O)(=O)c3cccs3)CC2)c1	inactive	–
O=C(NCc1cccnc1)C1CCN(Cc2cc3ccccc3n2Cc2ccccc2)CC1	inconclusive [inhibitor, single point]	–
O=C(NNC1=Nc2ccccc2SC1)c1ccccc1F	inconclusive [inhibitor, single point]	–
S=C(NCc1ccccc1)N1CCN(c2ccccc2)CC1	inactive	–
CCN(C(=O)c1ccncc1)c1c(N)n(Cc2ccccc2)c(=O)[nH]c1=O	inactive	–
Cc1nn(CCCC(=O)NCc2ccc(Cl)cc2)c(C)c1[N+](=O)[O-]	inconclusive [inhibitor, single point]	–
O=C(c1ccc(S(=O)(=O)N2CCCC2)cc1)N1CCN(Cc2ccc3c(c2)OCO3)CC1	inconclusive [inhibitor, partial curve, poor fit]	–
CC(=O)N(c1ccc2oc(=O)sc2c1)S(=O)(=O)c1ccc(C)cc1	inconclusive [inhibitor, single point]	–
Cc1ccc(NC(=O)COC(=O)c2ccc3c(c2)C(=O)N(CCc2ccccc2)C3=O)c(C)c1	inconclusive [inhibitor, partial curve, poor fit]	–
Cc1ccc(S(=O)(=O)N2C[C@@H]3[C@H]4CC[C@H](C4)[C@@H]3[C@@H](C)[C@@H]2c2cn(Cc3ccccc3)c3ncccc23)cc1	active: 23.1 µM	–
CCOc1ccc(N(C(=O)c2ccc(OC)cc2)S(=O)(=O)c2ccc3c(c2)n(C)c(=O)n3C)cc1	inconclusive [inhibitor, single point]	–
O=C(C[n+]1cccc(Br)c1)c1cccc([N+](=O)[O-])c1	inactive	–
O=C(COC(=O)c1ccc(NS(=O)(=O)c2cccs2)cc1O)Nc1ccc(F)cc1	inconclusive [inhibitor, single point]	–
COc1cccc(-n2c(SCC(=O)NCCC3=CCCCC3)nc3n[nH]c(C)c3c2=N)c1	active: 16.4 µM	–
CCOC(=O)c1c(C)c(C(=O)NCCc2ccc(S(N)(=O)=O)cc2)c(C)n1CC	inactive	–
